Reference: PubChem BioAssay AID686979 (National Center for Advancing Translational Sciences (NCATS), 2013)
Where “and” joins values, the source holds several entries; their conditions need not be identical. Identical values can stand only once. The whole screen tested about 420,000 compounds, of which about 50,000 (12%) were called active. Inconclusive means that the source gave no clear call. Such entries were picked first, then a sample of the others. Calls follow the shape of the dose curve; as a rule, active = well fitted inhibition curve with a large enough effect; inconclusive = small, poorly fitted or top-dose-only effect; inactive = flat fitted curve, though single readings scatter. No potency is given beside an inconclusive call; the fits are too rough. The source holds several records for some structures; these can differ, active in one and inactive in another.

experiment: qHTS for Inhibitors of human tyrosyl-DNA phosphodiesterase 1 (TDP1): qHTS in cells in presence of CPT; conditions: chicken DT40 Tdp1-/-;hTDP1 cells + 20 nM CPT, ATP luminescence, 48 h; activity change, negative = growth inhibition: at 46.2 µM (top of the series); also: nearly all actives have a fitted effect of over 55% in size
Summary of the method: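 Chicken DT40 Tdp1-/- cells stably complemented with human TDP1 were seeded at 400 cells/well in medium containing 20 nM camptothecin, exposed to pin-transferred compounds, and grown at 37 °C for at least 48 hr. Viability was read as ATP luminescence.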
% is scaled to controls: 0 for no effect and ±100 for the full control effect; potency is read from the fitted curve at half-maximal effect; tags tell the direction and shape of the fitted curve.

Structure (SMILES)	Potency	activity change, negative = growth inhibition
O=C(CS(=O)CC(=O)N(c1ccccc1)C(C(=O)NC1CCCCC1)c1ccco1)Nc1ccc(F)cc1 (stereo unspecified)	inconclusive [inhibitor, single point]	–
Cc1cc2nc(C3CCCCC3)c(Cc3ccccc3)n2c(C)c1Br	inconclusive [inhibitor, partial curve]	–
CCOc1cc2[nH]c(=O)n(CCCC(=O)NCc3ccc(OC)cc3)c(=O)c2cc1OCC	inconclusive [inhibitor, single point]	–
Nc1nonc1-n1nnc(C(=O)N/N=C/c2cccnc2)c1CSc1ccc(Cl)cc1	active: 23.1 µM	–
O=c1c2ccccc2sn1-c1cc(S(=O)(=O)N2CCOCC2)ccc1N1CCCCC1	active: 2.51 µM	–
COc1ccc(-c2cn3c(n2)sc2cc(C(=O)Nc4ccc(F)cc4Cl)ccc23)cc1	inconclusive [inhibitor, single point]	–
COC(=O)c1cccc(NC(=S)NCc2ccc(Cl)cc2)c1	inconclusive [inhibitor, single point]	–
Cc1ccc2nc(SCC(=O)Nc3ccc4c(c3)CCC4)[nH]c2c1	active: 18.4 µM	–
COC(=O)c1c(-c2cccs2)csc1NC(=O)c1cc(OC)c(OC)c(OC)c1	active: 9.2 µM	–
CC(C)CCNC(=O)c1nn(C)c2c1CSc1ccccc1-2	inconclusive [inhibitor, single point]	–
C=Cc1ccc(Cn2c(C(=O)O)c(CNCc3ccccc3)c3ccc(OC)cc32)cc1	inconclusive [inhibitor, single point]	–
COc1ccccc1NC(=S)NCCC(c1ccccc1)c1ccccc1	inconclusive [inhibitor, single point]	–
O=C(NCCCc1ccccc1)c1cccc(NC(=O)c2ccccc2)c1	inconclusive [inhibitor, single point]	–
O=C(CNC(=O)c1cccc(Cl)c1)NCCCSc1ccccc1	inconclusive [inhibitor, single point]	–
CC(C)C(c1nnnn1Cc1ccc(F)cc1)N1CCN(C(=O)c2ccco2)CC1 (stereo unspecified)	inconclusive [inhibitor, single point]	–
COc1ccccc1N1CCN(C(=O)CSc2nnc(NC(=O)C(C)C)s2)CC1	inconclusive [inhibitor, single point]	–
Cc1ccc(Cc2c(-c3ccc(Br)cc3)nc3cc(C)ccn23)cc1	active: 23.1 µM	–
COc1ccccc1OCc1ccc(C(=O)Nc2cc(OC)c(OC)c(OC)c2)o1	inconclusive [inhibitor, single point]	–
CC1CCCN(S(=O)(=O)c2cc(C(=O)NCc3ccccc3Cl)n(C)c2)C1 (stereo unspecified)	inconclusive [inhibitor, single point]	–
Cc1ccc2cc(CN(CCN(C)C)C(=S)Nc3ccccc3)c(=O)[nH]c2c1C	inconclusive [inhibitor, single point]	–
c1coc(CNc2ncnc3[nH]ncc23)c1	inactive and active: 11.2 µM	–
COc1ccc(-c2[nH]ncc2/C=N\NC(=O)c2cccs2)cc1OC	–	inactive: -0.453%
COc1cccc(CNc2ccc(N3CCC(C)CC3)cc2)c1OC	active: 23.1 µM	–

Structure (SMILES)	Potency	activity change, negative = growth inhibition
Cc1ccccc1CNS(=O)(=O)c1c(C(=O)N2CCCC2)c(C)n(C)c1C	–	inactive: -6.28%
CCCCCOC(=O)c1[nH]c2c(c1C)C(=O)CC(c1ccco1)C2 (stereo unspecified)	active: 0.184 µM	–
COc1ccc(C(C)(NC(C)=O)c2nc(-c3ccccc3OC)cs2)cc1 (stereo unspecified)	active: 18.4 µM	–
CC(=O)Nc1cc(-c2ccc(F)cc2)cn2c(-c3ccc(F)cc3)cnc12	active: 16.4 µM	–
Cc1ccc(C(=O)Nc2nc3c(s2)CCCC3)o1	active: 23.1 µM	–
CCN(C(=O)c1cc2cc(Br)cc(OC)c2oc1=O)c1ccccc1	–	inactive: -7.58%
CC(=O)c1nn(-c2cccc(Br)c2)cc1C(=O)c1ccc2ccccc2c1	inconclusive [inhibitor, single point]	–
COc1cc(OC)cc(C(=O)Nc2ccc(NC(=O)c3ccco3)c(Cl)c2)c1	inconclusive [inhibitor, single point]	–
CC1=CC(=O)c2ccccc2C1=O	active: 8.2 µM	–
COC(=O)CCn1nc(-c2ccc(C)cc2)c2ccccc2c1=O	–	inactive: -21.6%
CCC(C)c1ccc(NC(=S)NCc2cccnc2)cc1 (stereo unspecified)	inconclusive [inhibitor, single point]	–
O=C(NCC1CCCCC1)c1ccc(F)c(S(=O)(=O)N2CCOCC2)c1	–	inactive: -27.4%
Cc1nc2cc(NC(=O)N3c4ccccc4CC3C)ccc2o1 (stereo unspecified)	inconclusive [inhibitor, single point]	–
Cc1cc(=O)[nH]c(N/N=C/c2c(C)nn(-c3ccccc3)c2Cl)n1	active: 23.1 µM	–
CSc1ccc(-c2nc3cnccn3c2Nc2ccc3c(c2)OCO3)cc1	inconclusive [inhibitor, partial curve]	–
O=C(NCc1ccccc1)C1C(c2ccc3c(c2)OCO3)=Nc2ccccc2N1C(=O)c1ccccc1 (stereo unspecified)	active: 23.1 µM	–
O=C(c1cccc(NS(=O)(=O)c2ccc(F)cc2)c1)N1CCN(c2ccccc2)CC1	inconclusive [inhibitor, single point]	–
CCC(=O)N1c2ccc(S(=O)(=O)N3CCN(c4cc(C)ccc4C)CC3)cc2CC1C (stereo unspecified)	inconclusive [inhibitor, single point]	–
COc1cccc(C2c3c(-c4ccccc4O)n[nH]c3C(=O)N2Cc2cccnc2)c1 (stereo unspecified)	inconclusive [inhibitor, partial curve]	–
O=S(=O)(Nc1ccc(-c2ccc(N3CCCC3)nn2)cc1)c1ccc(OC(F)(F)F)cc1	active: 14.6 µM	–
O=C(CCN1C(=O)c2ccccc2C1=O)NCc1ccco1	–	inconclusive: -14.2% [inhibitor]
CC(=O)c1cccc(-c2cnc3c(NC=O)cc(-c4ccccc4Oc4ccccc4)cn23)c1	active: 14.6 µM	–
CCn1c(C)nc2cc(-c3nc4n(n3)Cc3ccccc3-4)ccc21	active: 6.51 µM	–
